In patent publication US20210206845A1 (Chugai, published 2021):

B1: EEIVHC002/EEIVL (antibody, human IgG1, kappa)
heavy: QMQLVESGGGVVQPGRSLRLSCTASGFTFSNNGMHWVRQAPGKGLEWVAVIWFDGMNKFYVDSVKGRFTISRDNSKNTLYLEMNSLRAEDTAIYYCAREGDGSGIYYYYGMDVWGQGTTVTVGLSGRSDNHGSS[sequence of human IgG1 constant region not given]
light: [sequence of about 100 residues not given][sequence of about 120 residues not given]
notes: IgG1
B2: EEIVHC005/EEIVL (antibody, human IgG1, kappa)
heavy: QMQLVESGGGVVQPGRSLRLSCTASGFTFSNNGMHWVRQAPGKGLEWVAVIWFDGMNKFYVDSVKGRFTISRDNSKNTLYLEMNSLRAEDTAIYYCAREGDGSGIYYYYGMDVWGQGTTVTVGGSGLSGRSDNHGSSGSS[sequence of human IgG1 constant region not given]
light: [sequence of about 100 residues not given][sequence of about 120 residues not given]
notes: IgG1
B3: EEIVHC004/EEIVL (antibody, human IgG1, kappa)
heavy: QMQLVESGGGVVQPGRSLRLSCTASGFTFSNNGMHWVRQAPGKGLEWVAVIWFDGMNKFYVDSVKGRFTISRDNSKNTLYLEMNSLRAEDTAIYYCAREGDGSGIYYYYGMDVWGQGTTVTVGSGLSGRSDNHGSSSS[sequence of human IgG1 constant region not given]
light: [sequence of about 100 residues not given][sequence of about 120 residues not given]
notes: IgG1
B4: EEIVHC003/EEIVL (antibody, human IgG1, kappa)
heavy: QMQLVESGGGVVQPGRSLRLSCTASGFTFSNNGMHWVRQAPGKGLEWVAVIWFDGMNKFYVDSVKGRFTISRDNSKNTLYLEMNSLRAEDTAIYYCAREGDGSGIYYYYGMDVWGQGTTVTVSGLSGRSDNHGSSS[sequence of human IgG1 constant region not given]
light: [sequence of about 100 residues not given][sequence of about 120 residues not given]
notes: IgG1

target: T1, human CXCL10 (human, UniProt P02778 22-98); assay: Biacore SPR, antibody captured on protein A CM3 chip, 6.25/3.125/1.563/0.781 nM human CXCL10 as analyte, 25 C
T1 construct: Both are treated as the same protein; also called hCXCL10; IP-10

binding result	Binder
binds	B1
binds	B2
binds	B3
binds	B4
